These results are taken from paper PMC12136788.

To fix the notation:
B1: chr22:44243664:44249684:-|three_prime_utr|ENSG00000138944|control|control|control (ssRNA)
RNA: GGGAGUUCUACAGUCCGACGAUCGCACCCGGUGCAGCCUCCGAGAAGAACAACUUCUACAGAGAUGCCAGGGACAGCCGAGGUAGCGGCGGUGGCACAGGAGGAAAUGCUGCCUGUGCCCAAAGCCCCCUUCCGCGGACUUCUCAACAGAGGAUUGAGCAUCA
B2: chr7:4859899:4861810:-|CDS|ENSG00000218823|control|control|control (ssRNA)
RNA: GGGAGUUCUACAGUCCGACGAUCUCUGUGCCUUCAUCUACUAGCACUAUGAAGACAGGCCCAUUGAUUAGCAGUUCUCAGGGUAGAAACAGUCCUGCCUUGGCUGUAAUGACAGCAUCUGUGGCUAACAUACAGGCUACUGAACAACAGAGGAUUGAGCAUCA
B3: chr8:23572142:23572248:+|3pUTR|ENSG00000147454|unk|FALSE|unique (ssRNA)
RNA: GGGAGUUCUACAGUCCGACGAUCCCUCCCUGGGCAGAAUGUAGCUUUUCUGCUUCACUGUGGCAGCCUCCUCCCUGGAUCCUUAGAUCCCAGAGGAGGGAAGAAAAUUUGCAGUGACUGAAAACAGUAAAAAAAAAAAAAAAACAACAGAGGAUUGAGCAUCA
B4: ENSG00000198589:be:win_7951|CDS|ENSG00000198589|bound_else_gene|NA|bound_elsewhere_windowed (ssRNA)
RNA: GGGAGUUCUACAGUCCGACGAUCCGUGAUGCAACUCUUUUGCUGUGGUAUUGGAAUGGAAAAUGCAGUGGGAUUGGAGAUAACCCAGGCAGUGAGACUGCUGCUCCUCGGGCCAUUUUGACCGGCCAUGACUAUGAGGUCACACAACAGAGGAUUGAGCAUCA
B5: chr2:15946816:15946917:+|3pUTR|ENSG00000134323|unk|FALSE|unique (ssRNA)
RNA: GGGAGUUCUACAGUCCGACGAUCUAUAUGCCUUUUUCCUAGCCUGUUUCUUCCUGUUAAUGUAUUUGUUCAUGUUUGGUGCAUAGAACUGGGUAAAUGCAAAGUUCUGUGUUUAAUUUCUUCAAAAUGUAUAUAUUUAGUGCUCAACAGAGGAUUGAGCAUCA
B6: ENSG00000165280:stop:overlap|stop_codon|ENSG00000165280|stop_codon|NA|stop_codon (ssRNA)
RNA: GGGAGUUCUACAGUCCGACGAUCCCGAGGUCAUGAACUCUCUAGCAGUUACUAUGGAUGACUUCCGGUUUUCCCUCCUUUUCUAGUGGGCCUUGAGCCAGAGUAACCCAUCAGCACUGCGGGAAACCGUGGUAGAGGUGCCACCAACAGAGGAUUGAGCAUCA
B7: chr6:149811313:149811414:+|3pUTR|ENSG00000120265|msi1|FALSE|unique (ssRNA)
RNA: GGGAGUUCUACAGUCCGACGAUCUGUUUCUAAUUUGCUGCUGAUAAUGUAUAUGAACUUAACAUGCUGUGUAAGCUGUGUCCUAGUUCUUGAACAGUUUAUGCAGUGCUGCUUUGCCAAAUAAAGUUAAAAGUAAAAGAGGCACAACAGAGGAUUGAGCAUCA
B8: chr19:53069209:53069329:-|CDS|ENSG00000170949|unk|total|mutant (ssRNA)
RNA: GGGAGUUCUACAGUCCGACGAUCUGGAGAGAAACCUUACAAGUGCAAUGAGUGCGGCAAAGCCUUCCGUGUUCGUUCAAGCCCCGCAAUCCAUCAGACAAUCCACACUGGAGAAAAACCUUACAAAUGUAAUGAAUGUGGCAACAACAGAGGAUUGAGCAUCA
B9: chr10:100209595:100209696:-|CDS|ENSG00000213341|unk|FALSE|unique (ssRNA)
RNA: GGGAGUUCUACAGUCCGACGAUCACUUCUUUCAGAGACAGGAAUUUCUCUGGAUCCUCGGAAACCAGCCUCUCAAUGUGUUCUAGAUGGAGUUGUAAGAAAAUUAAUUAUAAUAUCCCUAGAGUAUGUGAAAUCUAGAGGGAUCAACAGAGGAUUGAGCAUCA
B10: chr3:44647099:44647200:+|3pUTR|ENSG00000186448|msi1|FALSE|unique (ssRNA)
RNA: GGGAGUUCUACAGUCCGACGAUCAUUUGUAUGUAAACUACAUAAAGAACUUUCCAAAUUUAACAGUAAUAAGUAAAUACAAUUAGAAAAUAAGCAAAAGACAGACAUUUCACUGAAGUAUAGAUAGCAAAUAAGCAAAUGAAACAACAGAGGAUUGAGCAUCA
B11: chr9:21227606:21228173:-|CDS|ENSG00000234829|control|control|control (ssRNA)
RNA: GGGAGUUCUACAGUCCGACGAUCGCAGACCUUCAAUCUCUUCAGCACAGAGGACUCAUCUGCUGCUUGGGAACAGAGCCUCCUAGAAAAAUUUUCCACUGAACUUUACCAGCAACUGAAUAACCUGGAAGCAUGUGUGAUACACAACAGAGGAUUGAGCAUCA
B12: chr7:152122106:152122213:+|3pUTR|ENSG00000178234|unk|FALSE|unique (ssRNA)
RNA: GGGAGUUCUACAGUCCGACGAUCAGUGGUUUUUAUCUGAUCAGGAACUUGUCAUGAUUUCCUUUCUUAGACUUCAUAGGAGAUAGUGCUUUAAAAAAAAAAAAAACUUCUAUUAUUUGUUUAGUAUGUUGUAAGUAGAUCAUUCAACAGAGGAUUGAGCAUCA
B13: ENSG00000173757:stop:overlap|stop_codon|ENSG00000173757|stop_codon|NA|stop_codon (ssRNA)
RNA: GGGAGUUCUACAGUCCGACGAUCACCAGGCCCCCUCCCCAGCUGUGUGUCCCCAGGCUCACUAUAACAUGUACCCACAGAAGUAGGUGGCAUUCUUGUGGGGGUCCACAGGGGAGGAACUGGGGGCUUGGCCCCAGGCUGGACCAACAGAGGAUUGAGCAUCA
B14: ENSG00000107863:be:win_1901|CDS|ENSG00000107863|bound_else_gene|NA|bound_elsewhere_windowed (ssRNA)
RNA: GGGAGUUCUACAGUCCGACGAUCCAAAACCAUCAUUUAGCCAGAAAUCAUUUGUUUCUAUCAAAGACCAAAGACCAGUAAAUCACUUGCAUCAGAACAGUCUGUUGAAUCAGCAGACAUGGGUAAGGACUGACAGUGCCCCCGCAACAGAGGAUUGAGCAUCA
B15: chr16:3727831:3727932:-|CDS|ENSG00000005339|unk|FALSE|bound_elsewhere (ssRNA)
RNA: GGGAGUUCUACAGUCCGACGAUCCGUCUCACCCCAGACUGGUUCCCCCCACCCCGGACUCGCAGUCACCAUGGCCAGCUCCAUAGAUCAGGGACACUUGGGGAACCCCGAACAGAGUGCAAUGCUCCCCCAGCUGAACACCCCCAACAGAGGAUUGAGCAUCA
B16: ENSG00000070961:be:win_951|CDS|ENSG00000070961|bound_else_gene|NA|bound_elsewhere_windowed (ssRNA)
RNA: GGGAGUUCUACAGUCCGACGAUCUGAGAAUCGCAACAAAGCAAAAGCCCAGGAUGGUGCAGCCAUGGAAAUGCAGCCAUUGAAGAGUGAAGAAGGUGGAGAUGGUGAUGAAAAAGAUAAAAAGAAAGCAAAUUUGCCAAAAAACAACAGAGGAUUGAGCAUCA
B17: chr4:7762510:7762611:-|3pUTR|ENSG00000196526|msi1|total|mutant (ssRNA)
RNA: GGGAGUUCUACAGUCCGACGAUCGUGCAAUAUUUCUUGGAGAAUUUGGAUGCCUAAGGCAUAAAGGAAAAAAACAGAGUUCACCGUUUGAGCUGGUAUUUACCCCCUGGGUUUAAAAAUCAGAUUAACUUCUUGGUCUCCCGGCAACAGAGGAUUGAGCAUCA
B18: chr10:92030311:92030412:+|3pUTR|ENSG00000095564|unk|total|mutant (ssRNA)
RNA: GGGAGUUCUACAGUCCGACGAUCAUAUAAGAUUGAAACUGUAAAAUAUAUGCAACUGUGUGUUAUUUGCCGGAAAUGGUCACCCGAAAGAGCAAAAGAUUAUUCAGGUAUACAGGUUUUUUUUCAUUGUUCCGGAUUUUAACUCAACAGAGGAUUGAGCAUCA
B19: chr12:109450965:109451066:-|3pUTR|ENSG00000110906|msi1|total|mutant (ssRNA)
RNA: GGGAGUUCUACAGUCCGACGAUCGCCCGGGCACAAUCCCCACUGCUUUGCCCGACGUGCUUUCUGCCAUGUGGCUUUGGGCCCCGAGCUUGUUGAUAAUUGCAGCUUGUGGCAGUGGAAAUAUGGCUGAAUGAGCGUCUAAAUCAACAGAGGAUUGAGCAUCA
B20: chr7:80742902:80743013:-|3pUTR|ENSG00000075223|msi1_unk|FALSE|overlapping (ssRNA)
RNA: GGGAGUUCUACAGUCCGACGAUCUCAGAGUCACAGUUCCCUUUAUUUCACAUAAGCCCAAACUGAUAGACAGUAACGGUGUUUAGUUUUAUACUAUAUUUGUGCUAUUUAAUUCUUUCUAUUUUCACAAUUAUUAAAUUGUGUCAACAGAGGAUUGAGCAUCA
B21: chr2:32377587:32377702:+|CDS|ENSG00000115760|unk|total|mutant (ssRNA)
RNA: GGGAGUUCUACAGUCCGACGAUCGGUGAAAUGUCAGUAUAUCUCUGCUGUGGAUAAAGUUAUAUUUGUGGAUGAUUAUGCAGCCGGGUGCCGGAAGGACCUUAAUGGAAUCUUGUUGUCCGACACUGCUCUGCAAACUCCAGUCAACAGAGGAUUGAGCAUCA
B22: chr1:193029531:193029688:-|CDS|ENSG00000116750|unk|total|mutant (ssRNA)
RNA: GGGAGUUCUACAGUCCGACGAUCUUGAUAUCUUCACUUUUAUAUUUUACCGGUAAUUAAUAAUGCUUGUGCUACUCAAGCCACCGUGAGUGUGUUACUGAACUGUACCCACCAGGAUGUCCAUUCCGGCGAGACAUUAUCAGACAACAGAGGAUUGAGCAUCA

The other results are listed elsewhere or left out.

The target of the assay is MSI1 full-length (mouse, UniProt Q61474 1-362). Put plainly: nsRBNS (natural sequence RNA bind-n-seq); RBNS binding buffer (assumed for nsRBNS): 25 mM Tris pH 7.5, 150 mM KCl, 3 mM MgCl2, 0.01% Triton X-100, 500 ug/ml BSA, 20 U/ml SUPERase-In, 4 C; UNK is unkempt and MSI1 is Musashi-1; names of the RNAs are library labels; protein concentration not given here; high values mean tight binding.
UniProt Q61474, sequence (Q61474 whole entry): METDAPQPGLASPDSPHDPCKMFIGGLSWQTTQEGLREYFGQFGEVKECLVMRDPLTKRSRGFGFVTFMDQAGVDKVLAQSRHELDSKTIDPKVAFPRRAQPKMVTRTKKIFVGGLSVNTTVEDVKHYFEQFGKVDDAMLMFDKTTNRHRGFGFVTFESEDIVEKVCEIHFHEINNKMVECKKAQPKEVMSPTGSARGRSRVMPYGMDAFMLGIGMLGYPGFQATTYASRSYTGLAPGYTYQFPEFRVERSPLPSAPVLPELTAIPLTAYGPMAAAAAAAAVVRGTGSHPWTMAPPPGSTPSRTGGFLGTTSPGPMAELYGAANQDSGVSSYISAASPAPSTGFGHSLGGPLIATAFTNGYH
For B1, the binding signal amounted to 0.283 enrichment R.

As to B2, the binding signal amounted to 0.533 enrichment R.

B3 returned a binding signal of 0.803 enrichment R.

In turn, B4 returned a binding signal of 0.42 enrichment R.

B5 had a binding signal of 6.12 enrichment R.

On to B6, for which the binding signal stood at 0.663 enrichment R.

Molecule B7 had a binding signal of 0.87 enrichment R.

B8 displayed a binding signal of 0.399 enrichment R.

In turn, B9 showed a binding signal of 0.755 enrichment R.

In the case of B10, the binding signal is 129 enrichment R.

B11: the binding signal stood at 0.449 enrichment R.

Take B12: the binding signal was 20.2 enrichment R.

Take B13: the binding signal turned out to be 0.357 enrichment R.

Take B14: the binding signal amounted to 0.904 enrichment R.

For the molecule B15, the binding signal is 0.562 enrichment R.

Molecule B16 returned a binding signal of 0.426 enrichment R.

As to B17, the binding signal was found to be 0.266 enrichment R.

Take B18: the binding signal is 0.297 enrichment R.

B19 yielded a binding signal of 0.424 enrichment R.

Consider B20, for which the binding signal is 5.09 enrichment R.

Consider B21, for which the binding signal is 0.427 enrichment R.

For B22, the binding signal worked out at 1.15 enrichment R.
